This is an account of results in publication PMC13532744.

Amino acid sequences for entries named in this document (tags omitted).
UniProt P29466: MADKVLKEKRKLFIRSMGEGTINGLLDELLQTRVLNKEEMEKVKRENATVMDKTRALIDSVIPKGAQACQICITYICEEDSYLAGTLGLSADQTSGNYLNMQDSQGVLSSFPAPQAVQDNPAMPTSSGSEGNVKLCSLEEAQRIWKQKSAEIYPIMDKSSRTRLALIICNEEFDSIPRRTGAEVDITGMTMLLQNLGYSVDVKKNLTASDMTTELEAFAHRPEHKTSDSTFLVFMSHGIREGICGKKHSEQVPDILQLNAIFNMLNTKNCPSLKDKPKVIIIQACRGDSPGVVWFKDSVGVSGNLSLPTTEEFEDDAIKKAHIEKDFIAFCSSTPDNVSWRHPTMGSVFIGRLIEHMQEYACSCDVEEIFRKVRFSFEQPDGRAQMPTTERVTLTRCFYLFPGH

Assay [1] concerns the target T1, FLAG-caspase-11 (mouse) (UniProt P70343).
T1 sequence: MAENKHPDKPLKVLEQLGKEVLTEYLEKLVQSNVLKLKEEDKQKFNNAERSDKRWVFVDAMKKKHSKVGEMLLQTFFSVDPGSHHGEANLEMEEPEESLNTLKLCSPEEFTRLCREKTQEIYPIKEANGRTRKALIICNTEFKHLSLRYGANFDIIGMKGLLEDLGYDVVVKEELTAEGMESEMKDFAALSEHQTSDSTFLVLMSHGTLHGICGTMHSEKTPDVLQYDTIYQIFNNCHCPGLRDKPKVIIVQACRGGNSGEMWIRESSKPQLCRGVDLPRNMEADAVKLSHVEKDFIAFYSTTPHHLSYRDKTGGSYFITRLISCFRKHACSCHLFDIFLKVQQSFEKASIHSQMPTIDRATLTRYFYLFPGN
Briefly: co-IP; both partners tagged and transfected in HeLa or HEK293T for 24 h (some primed with IFN-γ and/or transfected with LPS); lysis in 150 mM NaCl, 50 mM Tris pH 7.5, 1 mM EDTA, 0.5% NP40, 10% glycerol; anti-FLAG M2 or anti-Myc magnetic beads overnight at 4 °C; immunoblot or Coomassie. On the technique in general: Immunoblotting shows a protein as a band on a membrane.

The next assay addresses FLAG-caspase-1 (human) (UniProt P29466). The description is as above.
The target in the next assay is T2, FLAG-caspase-7 (human) (UniProt P55210).
T2 sequence: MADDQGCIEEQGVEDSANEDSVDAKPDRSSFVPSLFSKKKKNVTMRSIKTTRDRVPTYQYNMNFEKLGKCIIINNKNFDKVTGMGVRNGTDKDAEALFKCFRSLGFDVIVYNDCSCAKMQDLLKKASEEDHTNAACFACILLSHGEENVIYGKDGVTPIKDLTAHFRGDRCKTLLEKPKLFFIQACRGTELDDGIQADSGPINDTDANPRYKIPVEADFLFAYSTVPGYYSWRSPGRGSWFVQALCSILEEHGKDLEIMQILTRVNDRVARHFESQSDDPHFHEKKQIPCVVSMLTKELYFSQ
Described as above.

In the next assay the target is T3, FLAG-caspase-2 (human) (UniProt P42575).
T3 sequence: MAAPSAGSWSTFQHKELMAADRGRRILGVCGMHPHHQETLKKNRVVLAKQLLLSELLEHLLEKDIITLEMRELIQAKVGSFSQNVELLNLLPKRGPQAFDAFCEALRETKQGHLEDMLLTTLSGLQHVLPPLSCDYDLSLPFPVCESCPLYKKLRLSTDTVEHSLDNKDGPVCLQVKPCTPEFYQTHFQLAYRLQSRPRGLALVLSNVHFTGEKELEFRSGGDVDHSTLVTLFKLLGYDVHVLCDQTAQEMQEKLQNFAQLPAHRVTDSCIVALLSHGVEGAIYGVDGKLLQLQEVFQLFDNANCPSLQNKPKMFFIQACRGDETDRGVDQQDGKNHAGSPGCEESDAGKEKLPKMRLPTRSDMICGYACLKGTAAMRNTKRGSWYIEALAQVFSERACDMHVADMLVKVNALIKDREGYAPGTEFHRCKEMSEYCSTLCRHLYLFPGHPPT
The description is as above.

Assay [2] deals with T1, FLAG-caspase-11 (mouse). Briefly: condition: only beads-bound immunoprecipitate digested with recombinant USP5 (removes unanchored polyUb); co-IP; FLAG-caspase-4/11 immunoprecipitates with Myc-UBXN1, beads-bound fraction digested with recombinant USP5 (IsoT) to remove unanchored polyUb, then immunoblot.

These are yes or no findings as the source states them, for the method shown. Binding seen in cells or lysates may run through a third protein. Some entries that bind do so weakly or less than the wild type. Tags and fused reporters may be left off the sequences shown.

B1: Myc-UBXN1 (protein, UniProt Q04323 1-297)
chain: MAELTALESLIEMGFPRGRAEKALALTGNQGIEAAMDWLMEHEDDPDVDEPLETPLGHILGREPTSSEQGGLEGSGSAAGEGKPALSEEERQEQTKRMLELVAQKQREREEREEREALERERQRRRQGQELSAARQRLQEDEMRRAAEERRREKAEELAARQRVREKIERDKAERAKKYGGSVGSQPPPVAPEPGPVPSSPSQEPPTKREYDQCRIQVRLPDGTSLTQTFRAREQLAAVRLYVELHRGEELGGGQDPVQLLSGFPRRAFSEADMERPLQELGLVPSAVLIVAKKCPS
B1: the binding entry in the assay with FLAG-caspase-11 (mouse) [1] is “binds”; with FLAG-caspase-1 (human), “no binding”; with FLAG-caspase-7 (human), “no binding”; in the assay with FLAG-caspase-2 (human) it was “no binding”; in the assay with FLAG-caspase-11 (mouse) [2], “no binding”.
